Results published in PubChem BioAssay AID540317 (National Center for Advancing Translational Sciences (NCATS), 2011).
Screen size: about 390,000 compounds; about 2,200 (0.56%) were called active. This list was built around the results that the source calls inconclusive (neither active nor inactive); the mix of calls is not that of the screen. Calls follow the shape of the dose curve; as a rule, active = well fitted inhibition curve with a large enough effect; inconclusive = small, poorly fitted or top-dose-only effect; inactive = no such curve, though single readings can be large or run the other way. Potencies beside an inconclusive call are fits to weak or partial responses and may not hold up.

Biological target: Chromobox protein homolog 1 (Homo sapiens) (UniProt P83916)
Assay: HTS for Inhibitors of HP1-beta Chromodomain Interactions with Methylated Histone Tails; also: nearly all actives have a fitted effect of over 70% in size
Settings: AlphaScreen HP1-beta / biotin-H3K9me3 peptide binding; series mostly up to 114 µM
Summary of the method: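 AlphaScreen: HP1-beta (50 nM) preformed 30 min with biotin-H3(1-18)K9me3 peptide (50 nM) in PBS pH 7.4, 0.01% Tween-20. Compound added for 30 min at RT, then streptavidin donor/nickel chelate acceptor beads (10 ug/mL) for 30 min.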
Potency is read from the fitted curve at half-maximal effect; tags tell the direction and shape of the fitted curve.

Sequence of UniProt P83916 (P83916 whole entry, looked up): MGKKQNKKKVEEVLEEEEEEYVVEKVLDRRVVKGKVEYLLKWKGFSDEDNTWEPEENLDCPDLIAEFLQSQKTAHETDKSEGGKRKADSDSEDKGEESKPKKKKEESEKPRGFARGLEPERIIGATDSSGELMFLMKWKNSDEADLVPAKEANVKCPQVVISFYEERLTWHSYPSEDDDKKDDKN

Structure (SMILES) | Potency
Cc1cc(C)c(NC(=O)CSc2nc(=O)n(Cc3cccnc3)c3c2CCC3)c(C)c1 | inactive
CN(CC(=O)NCCc1ccc(F)cc1)Cc1cccc(Cl)c1 | inactive
COc1ccc(C(=O)Nc2ccnn2C2CCN(CCC(C)c3ccc(C)o3)CC2)cc1 (configuration not stated) | inconclusive: 70.8 µM [inhibitor, partial curve]
COc1ccc2[nH]c3c4c(ccc3c2c1)C(=O)C=CC4=O | inconclusive: 2.82 µM [inhibitor, full curve]
CCN(CCN(C)C)C(=O)c1ccc2c(c1NCCO)C(=O)c1ccccc1C2=O | inconclusive: 50.1 µM [inhibitor, partial curve]
CNc1ccc(S(=O)(=O)NCC(=O)OCC(=O)Nc2cccc(Cl)c2Cl)cc1[N+](=O)[O-] | inconclusive: 25.1 µM [inhibitor, single point]
O=[N+]([O-])c1ccc(N(CCO)Cc2ccccc2)c([N+](=O)[O-])c1 | inconclusive: 44.7 µM [inhibitor, partial curve]
Cc1c(C(=O)O)cccc1-c1ccc(C=O)o1 | inactive
Cc1c(C(=O)NC(=S)Nc2ccccc2N2CCCC2)cccc1[N+](=O)[O-] | inconclusive: 17.8 µM [inhibitor, full curve, poor fit]
COc1ccc(CNC(NC(=O)c2ccccc2)(C(F)(F)F)C(F)(F)F)cc1 | inactive
Cn1nc([N+](=O)[O-])nc1Sc1cccc2cccnc12 | inactive
S=c1[nH]nc(-c2cc(-c3ccccc3)n[nH]2)n1/N=C/c1ccc(Br)s1 | inconclusive: 22.4 µM [inhibitor, partial curve, poor fit]
COc1ccccc1NS(=O)(=O)c1cc(NC(=S)Nc2cc(C)cc(C)c2)ccc1Cl | inconclusive: 39.8 µM [inhibitor, single point]
COc1ccc(-n2c(CN3CCN(c4ccccc4)CC3)nc3ccc([N+](=O)[O-])cc3c2=O)c(OC)c1 | inconclusive: 31.6 µM [inhibitor, partial curve]
COc1ccc(CN2CCN(Cc3ccc(Br)cc3)CC2)c(OC)c1OC | inconclusive: 28.2 µM [inhibitor, partial curve, poor fit]
CC1CC(C)CN(CCOc2cccc(Cl)c2Cl)C1 (configuration not stated) | inconclusive: 14.1 µM [inhibitor, partial curve, poor fit]
CCOC(=O)C1CCN(S(=O)(=O)c2ccc(-c3cc(C(F)(F)F)n(C)n3)s2)CC1 | inactive
C/C(=N\NC(=O)c1cccnc1)c1ccc(OC2OCCOC2Oc2ccc(/C(C)=N/NC(=O)c3cccnc3)cc2)cc1 (configuration not stated) | inconclusive: 5.62 µM [inhibitor, full curve, poor fit]
COc1cccc(-c2sc3ccc(OC)cc3c2-c2ccc(OCCN3CCCCC3)cc2)c1 | inconclusive: 44.7 µM [inhibitor, partial curve]
CCOC(=O)c1cc(-c2ccccc2)sc1NC(=O)CC | inconclusive: 25.1 µM [inhibitor, single point]
CCCOc1ccc(OC(=O)c2ccc(-c3ccc(CCC)cn3)cc2)cc1 | inactive

Structure (SMILES) | Potency
CC(C)(C)C1=Nn2c(nnc2-c2ccco2)SC1 | inconclusive: 39.8 µM [inhibitor, partial curve, poor fit]
CCOC(=O)c1cc(-c2ccco2)nc2c1c(C)nn2-c1ccccc1 | inactive
CS(=O)(=O)N1CCN(Cc2ccc(C(F)(F)F)cc2)CC1 | inconclusive: 22.4 µM [inhibitor, partial curve, poor fit]
COc1ccc(OC)c(C2=Nn3c(nnc3-c3cccc(OC(C)C)c3)SC2)c1 | inconclusive: 39.8 µM [inhibitor, partial curve]
CCCCSc1ncc(C(=O)OCC)c(N)n1 | inconclusive: 7.08 µM [inhibitor, single point]
CCOC(=O)N1CCN(S(=O)(=O)N2CCCC(C(=O)NCCCN3CCCCC3CC)C2)CC1 (configuration not stated) | inconclusive: 89.1 µM [inhibitor, single point]
COc1ccc(/C=N/NC(=O)c2ccncc2)cc1[N+](=O)[O-] | inactive
O=C(c1ccc(Sc2cccc(Cl)c2)c([N+](=O)[O-])c1)N1CCN(c2ccccn2)CC1 | inconclusive: 11.2 µM [inhibitor, full curve]
Cc1cccc(N2CCN(Cc3nc(-c4cccc(Cl)c4)oc3C)CC2)n1 | inconclusive: 50.1 µM [inhibitor, partial curve, poor fit]
O=C1NN(c2ccccc2)C(=O)/C1=C/c1ccc(-c2ccc(Cl)c(C(=O)O)c2)o1 | inconclusive: 56.2 µM [inhibitor, partial curve, poor fit]
CC1=C(C#N)C(NC(=O)c2ccccc2)(C(F)(F)F)C(=O)N1 (configuration not stated) | inactive
Nc1nc(Nc2ccccc2)sc1C(=O)c1ccccc1 | inconclusive: 50.1 µM [inhibitor, partial curve]
O=C(C1=C(c2ccccc2)C(=O)c2ccccc2C1=O)c1ccccc1 | inconclusive: 10 µM [inhibitor, partial curve]
CCOc1ccc2c(c1)C(=O)C(=O)N2CC1COc2ccccc2O1 (configuration not stated) | inconclusive: 15.8 µM [inhibitor, full curve]
CN(C)c1ccc(P(=O)(COc2ccc([N+](=O)[O-])cc2)c2ccc(N(C)C)cc2)cc1 | inconclusive: 35.5 µM [inhibitor, partial curve]
O=C(CCSc1ccccc1Cl)NNC(=O)c1ccncc1 | inactive
Cc1ccccc1N=Nc1c(C)[nH]n(C(N)=S)c1=O | inconclusive: 15.8 µM [inhibitor, full curve]
CCOc1ccc(NC(=S)N(Cc2ccc(N(C)C)cc2)Cc2ccco2)cc1 | inconclusive: 8.91 µM [inhibitor, single point]
COc1ccc(OC)c(CN2CCSCC2)c1 | inconclusive: 56.2 µM [inhibitor, partial curve, poor fit]
CC(=O)c1cccc(N=Nc2c(-c3ccccc3)[nH]n(-c3ccccc3)c2=O)c1 | active: 14.1 µM
O=C1CC(c2ccccc2)Sc2nc(-c3ccccc3)c(-c3ccccc3)n21 (configuration not stated) | inconclusive: 31.6 µM [inhibitor, partial curve]
